Experimental data taken from PubChem BioAssay AID1347417 (National Center for Advancing Translational Sciences (NCATS), 2020).
Hit rate of the full screen: of about 120,000 compounds, about 5,300 (4.4%) were called active. The shares of active, inactive and inconclusive entries below differ from those in the screen. Calls come from the whole dose curve; as a rule, active = well fitted inhibition curve with a large enough effect; inconclusive = small, poorly fitted or top-dose-only effect; inactive = no such curve, though single readings can be large or run the other way. A potency beside an inconclusive call is a rough fit, not a confirmed value.

test: qHTS Primary assay for Inhibitors of Plasmodium falciparum Dd2 growth in vitro; note: nearly all actives have a fitted effect of over 65% in size; conditions: P. falciparum Dd2 growth, SYBR Green, 72 h; series mostly up to 28.9 µM
How it was run: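 Readout: SYBR Green fluorescence, 485 nm excitation, 535 nm emission, after ~16 h lysis at 37C. Before that, Dd2-infected red cells (2.5% hematocrit) grew 72 h with compound, 29 uM top final concentration.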
Potency is the fitted concentration of half-maximal effect; tags give direction and shape of the fitted curve.

Q: Which Potency does the source give for `CCN(Cc1cnn(CC)c1)C(=O)C1CCN(C(=O)N2CC3CC(C2)[C@H]2CCCC(=O)N2C3)CC1` (some centres undefined) here?
A: inactive

Q: Which Potency does the source give for `O=C(CC1CCCC1)NC1CCN(C(=O)N2CC3CC(C2)[C@H]2CCCC(=O)N2C3)CC1` (some centres undefined) here?
A: inconclusive: 3.55 µM [inhibitor, partial curve, poor fit]

Q: For `Cc1ccc(O)c(C(CC(=O)NCC2(c3ccccc3)CCCC2)c2ccccc2)c1` (centres undefined), which Potency is on record?
A: active: 10 µM

Q: For `CN(C)C[C@@H]1CN(Cc2ccncc2)C[C@H]1NC(=O)c1ccc(Cl)cc1`, which Potency is on record?
A: inconclusive: 6.31 µM [inhibitor, partial curve, poor fit]

Q: For `CCOC(=O)c1c(-c2ccccc2)oc2ccc(N(C(C)=O)S(=O)(=O)c3cc(C)ccc3C)cc12`, which Potency is on record?
A: inconclusive: 10 µM [inhibitor, single point]

Q: With `CC(=O)N1CCOc2cc(S(=O)(=O)Nc3cccc(C(F)(F)F)c3)c(Cl)cc21` as the compound, how does the Potency read?
A: active: 12.6 µM

Q: For `COCCn1cc2c3c(cccc31)CN(C(=O)c1cc(F)ccc1Cl)CC2`, which Potency is on record?
A: inconclusive: 2.82 µM [inhibitor, partial curve, poor fit]

Q: Which Potency does the source give for `CCOC(=O)c1ccccc1NC(=O)C(=O)Nc1ccc2nc3n(c(=O)c2c1)CCCCC3` here?
A: inconclusive: 10 µM [inhibitor, partial curve]

Q: With `CC(=O)N(C)Cc1cccn1C` as the compound, how does the Potency read?
A: inactive

Q: With `Cc1ccc(-c2ncc(C(=O)NCCN(C)C3CCCCC3)c(-c3ccncc3)n2)cc1` as the compound, how does the Potency read?
A: inconclusive: 2.82 µM [inhibitor, partial curve, poor fit]

Q: For `COc1ccccc1CNC(=O)CCn1c(=O)c2ccccc2n(CC(=O)Nc2cccc(Cl)c2)c1=O`, which Potency is on record?
A: inactive

Q: With `Cc1cc(C(=O)N2CCC3(CC2)c2[nH]c4ccccc4c2CCN3C)n(C)n1` as the compound, how does the Potency read?
A: inconclusive: 15.8 µM [inhibitor, single point]

Q: With `CCOC(=O)c1cc(-c2ccccc2)n(-c2cccc(C(=O)Nc3ccc(F)c(F)c3)c2)c1C` as the compound, how does the Potency read?
A: inconclusive: 12.6 µM [inhibitor, single point]

Q: For `COc1ccc(C(=O)NC2CCCN(c3cc(-c4ccc(Cl)cc4)[nH]n3)C2)cc1OC` (centres undefined), which Potency is on record?
A: inconclusive: 0.398 µM [inhibitor, partial curve]

Q: For `CCOc1ccc(N2CC(c3nc4ccccc4n3Cc3cccc(Cl)c3)CC2=O)cc1` (centres undefined), which Potency is on record?
A: inconclusive: 11.2 µM [inhibitor, partial curve, poor fit]

Q: For `CCN1CCSc2ccc(C(=O)NC(C)c3ccccc3)cc21` (centres undefined), which Potency is on record?
A: inconclusive: 17.8 µM [inhibitor, single point]

Q: For `O=C(NCc1ccccn1)C1c2ccccc2C(=O)N(c2ccccc2)C12CCCCC2` (centres undefined), which Potency is on record?
A: inconclusive: 8.91 µM [inhibitor, single point]

Q: Which Potency does the source give for `Cc1cc(C)cc(C(=O)Nc2ccc(-c3nc4ncccc4o3)cc2)c1` here?
A: inconclusive: 6.31 µM [inhibitor, partial curve]

Q: Which Potency does the source give for `Cc1ccc(CN2CCC(N3CCCCCC3=O)CC2)cc1` here?
A: inconclusive: 7.08 µM [inhibitor, partial curve, poor fit]

Q: With `Cc1c2cnn(CC(=O)N3CCN(c4ccc(F)cc4)CC3)c(=O)c2c(C)n1Cc1ccc(F)cc1` as the compound, how does the Potency read?
A: inconclusive: 10 µM [inhibitor, single point]

Q: Which Potency does the source give for `CS(=O)(=O)Nc1ccc(C2(C(=O)NC3CCCCCC3)CCCCC2)cc1` here?
A: inconclusive: 17.8 µM [inhibitor, single point]

Q: For `Cn1c(C(=O)N2CCn3nc(Cc4ccccc4)cc3C2)cc2ccccc21`, which Potency is on record?
A: inconclusive: 12.6 µM [inhibitor, single point]

Q: Which Potency does the source give for `COc1ccc(OCc2nc(C)c(CCO)c(=O)n2CC(=O)Nc2ccc(OC)c(OC)c2)cc1` here?
A: inactive

Q: For `Cc1ccc(-n2ncc(C(=O)N3CCN(c4cccc(C)c4)C(C)C3)c2C2CCN(C(=O)OC(C)(C)C)CC2)cc1` (centres undefined), which Potency is on record?
A: active: 4.47 µM

Q: For `CN1C(=O)[C@H]2CN(Cc3cccc(C#N)c3)C[C@H]2C1=O`, which Potency is on record?
A: inactive

Q: For `CCc1ccc(CNC(=O)Cc2ccc(NC(=O)N3CCSc4ncccc43)cc2)cc1`, which Potency is on record?
A: inactive

Q: Which Potency does the source give for `CCOC(=O)CSc1nc2ccc(NC(=O)c3ccc(C)cc3)cc2s1` here?
A: inactive

Q: Which Potency does the source give for `CCOC(=O)c1ccc(NC(=O)CCCc2nc(-c3ccccc3Cl)no2)cc1` here?
A: inconclusive: 12.6 µM [inhibitor, partial curve]

Q: For `O=C(c1ccc(C(F)(F)F)cc1)N1CCn2c(nnc2-c2ccc(Cl)cc2)C1`, which Potency is on record?
A: inactive

Q: With `CCOc1ccc(-c2cc(NC(=O)Nc3cccc(C(C)=O)c3)c(C(=O)OC)s2)cc1` as the compound, how does the Potency read?
A: inconclusive: 7.08 µM [inhibitor, partial curve, poor fit]

Q: For `Cc1ccc(CN2CCC3(CC2)Cc2ccccc2NC3=O)cc1`, which Potency is on record?
A: active: 4.47 µM

Q: With `O=C1Nc2ccccc2CC12CCCCN2[S+](=O)([O-])c1cccc(C(F)(F)F)c1` (centres undefined) as the compound, how does the Potency read?
A: inactive

Q: For `Cc1ccsc1CN1CCCC(O)(CN(C)C)C1` (centres undefined), which Potency is on record?
A: inconclusive: 8.91 µM [inhibitor, partial curve, poor fit]

Q: Which Potency does the source give for `CC(C)c1nc(CNC(=O)c2ccc(N(C)C)nc2)no1` here?
A: inactive

Q: Which Potency does the source give for `CC(=O)N1CCCC(c2[nH]ccc2C(=O)N2CCc3ccccc32)C1` (centres undefined) here?
A: inconclusive: 12.6 µM [inhibitor, single point]

Q: For `O=C(CCC1CCN(C(=O)c2ccccc2F)CC1)Nc1cccc(Cl)c1`, which Potency is on record?
A: inconclusive: 10 µM [inhibitor, partial curve, poor fit]

Q: For `O=c1c2nc(OCc3ccc(-n4cccn4)cc3)ccc2ncn1Cc1ccccc1`, which Potency is on record?
A: inconclusive: 2 µM [inhibitor, single point]

Q: With `COc1ccc(-c2cc([C@H]3CN4CC[C@H]3C[C@@H]4CNCc3ccccn3)n(C)n2)cc1` as the compound, how does the Potency read?
A: inconclusive: 11.2 µM [inhibitor, partial curve, poor fit]

Q: Which Potency does the source give for `O=C(CCCc1ccccc1)N1C[C@@H](CN2CCOCC2)[C@@H](CO)C1` here?
A: inactive

Q: For `O=C(NCCc1ccccc1)N1CCCC(c2nc(CCOCC3CC3)no2)C1` (centres undefined), which Potency is on record?
A: inactive

Q: For `Cc1ccc(CN(C(=O)c2ccco2)c2ccc(CC(=O)NCC3CCCO3)cc2)cc1` (centres undefined), which Potency is on record?
A: inconclusive: 2.24 µM [inhibitor, single point]

Q: With `Cc1c(CNC(=O)c2ccc3c(c2)[nH]c(=O)n3C2CCC(O)CC2)cnn1C` (centres undefined) as the compound, how does the Potency read?
A: inactive

Q: Which Potency does the source give for `Cn1ccnc1-c1ccc(N2CCCC(CO)(Cc3cccc(Cl)c3)C2)nn1` (centres undefined) here?
A: active: 5.01 µM

Q: Which Potency does the source give for `COc1ccc(NC(=O)N2CC[C@@H](CC(=O)O)[C@@H](CC3=NCCc4cc(OC)c(OC)cc43)C2)cc1` here?
A: inactive

Q: For `CC(C)c1ccc(NC(=O)c2cn(C3CCCC3)c(=O)c3c2c2ccccc2n3C)cc1`, which Potency is on record?
A: inconclusive: 17.8 µM [inhibitor, single point]

Q: For `COCCN(CC1CCCO1)c1nc(CCN)nc2ccccc12` (centres undefined), which Potency is on record?
A: inconclusive: 0.141 µM [inhibitor, full curve, poor fit]

Q: For `COc1cccc(NC(=O)CSc2cc(C)c3ccccc3n2)c1`, which Potency is on record?
A: inactive

Q: Which Potency does the source give for `CC(C)CNC(=O)N1[C@@H]2CC[C@H]1CC(NC(=O)c1ccc(F)cc1)C2` (some centres undefined) here?
A: inactive

Q: For `CN(C)C(=O)C1CN(C(=O)Cc2cccc(Cl)c2)CC12CCOCC2` (centres undefined), which Potency is on record?
A: inconclusive: 8.91 µM [inhibitor, partial curve, poor fit]

Q: With `Cc1ccc(Nc2c(-c3cccnc3)nc3ccc(C)cn23)cc1` as the compound, how does the Potency read?
A: inactive

Q: With `COc1cccc(C2=CC(c3ccccc3F)n3ncc(C(=O)Nc4ccc(F)cc4)c3N2)c1` (centres undefined) as the compound, how does the Potency read?
A: inconclusive: 8.91 µM [inhibitor, partial curve]

Q: With `Cc1cnc(-c2ccccc2)n1C1CCCNC1` (centres undefined) as the compound, how does the Potency read?
A: active: 6.31 µM

Q: Which Potency does the source give for `COc1ccc(NC(=O)Cn2cccc2-c2nc(-c3ccccc3)no2)c(OC)c1` here?
A: inconclusive: 3.98 µM [inhibitor, single point]

Q: Which Potency does the source give for `Cc1nc(N2CCC(C(=O)NCc3ccccc3Cl)CC2)cc(C(F)(F)F)n1` here?
A: inactive

Q: Which Potency does the source give for `O=C(Cn1cccc1-c1nc(-c2ccccc2)no1)NCc1ccc(F)cc1F` here?
A: inconclusive: 3.98 µM [inhibitor, single point]

Q: For `O=C1NC2(Cc3ccccc31)CN(Cc1c[nH]c3ccccc13)C2`, which Potency is on record?
A: inactive

Q: Which Potency does the source give for `Cc1ccc(CN2CC[C@H](c3nc4ccc(C(F)(F)F)cc4[nH]3)C2)cc1` here?
A: active: 11.2 µM

Q: Which Potency does the source give for `CCc1cccc(NC(=O)Cn2c(C)ccc(NS(=O)(=O)c3ccc(C)cc3)c2=O)c1` here?
A: inconclusive: 1.41 µM [inhibitor, full curve, poor fit]

Q: For `CCCC1CN(C(=O)OC(C)(C)C)C(C)CN1` (centres undefined), which Potency is on record?
A: inactive

Q: With `C#CCNC(=O)C[C@@H]1CCN(C(=O)c2ccc(F)cc2)C[C@@H]1CC` as the compound, how does the Potency read?
A: inactive

Q: For `O=C1NCc2ccccc2CC12CCN(Cc1cc(F)ccc1O)CC2`, which Potency is on record?
A: inconclusive: 20 µM [inhibitor, single point]

Q: For `O=C(Cc1cccs1)Nc1ccc2c(N3CCCCC3)ncnc2c1`, which Potency is on record?
A: active: 5.01 µM

Q: Which Potency does the source give for `CCn1ncc(CN2C[C@@H](COC)[C@H](c3ccncc3)C2)c1C` here?
A: inconclusive: 0.501 µM [inhibitor, partial curve, poor fit]

Q: With `Cn1nccc1CN1CCc2nc(C3CC3)nc(-c3ccc(O)cc3)c2C1` as the compound, how does the Potency read?
A: inactive

Q: Which Potency does the source give for `CCOC(=O)N1CCc2c(sc(NCc3cc(OC)ccc3OC)c2C(=O)Nc2cc(OC)ccc2OC)C1` here?
A: active: 11.2 µM

Q: For `O=C(CSc1nc2c([nH]c3ccccc32)c(=O)n1-c1ccccc1)Nc1cccc(C(F)(F)F)c1`, which Potency is on record?
A: inconclusive: 11.2 µM [inhibitor, single point]

Q: For `CCOC(=O)N1CCC(NCc2cccnc2Oc2ccccc2C)CC1`, which Potency is on record?
A: inconclusive: 10 µM [inhibitor, single point]

Q: Which Potency does the source give for `O=C(NC1CCCCC1)c1ccc(CSc2nc3ccncc3n2Cc2cccc(F)c2)cc1` here?
A: active: 11.2 µM

Q: With `CN(C)C(=O)c1n[nH]c2c1CN(C(=O)c1ccc(F)cc1F)CC2` as the compound, how does the Potency read?
A: inactive
